Measured values taken from PubChem BioAssay AID624202 (National Center for Advancing Translational Sciences (NCATS), 2012).
Screen size: about 380,000 compounds; about 4,000 (1.1%) were called active. Inconclusive means that the source gave no clear call. Such entries were picked first, then a sample of the others. Calls follow the shape of the dose curve; as a rule, active = well fitted activation curve with a large enough effect; inconclusive = small, poorly fitted or top-dose-only effect; inactive = no such curve, though single readings can be large or run the other way. Potencies of inconclusive entries are doubtful fits and often do not repeat.

Test: qHTS Assay to Identify Small Molecule Activators of BRCA1 Expression; also: nearly all actives have a fitted effect of over 80% in size
Conditions: MCF7-BRCA1-FFLuc reporter, luminescence, 48 h; activation: at 46.1 µM (top of the series), scaled: vehicle 0%, 10 µM genistein 100% unless noted
Method in brief: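 Reporter cells (MCF7, BRCA1 promoter-firefly luciferase) received library compounds across a concentration series for 48 h. End-point luminescence was measured and concentration-effect curves derived after normalization.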
Potency is read from the fitted curve at half-maximal effect; tags tell the direction and shape of the fitted curve.

Row | Structure (SMILES) | Potency | activation
1 | CC(=O)c1ccc(NC(=O)CNCc2cccs2)cc1 | inconclusive: 11.2 µM [activator, partial curve, poor fit] | 
2 | CCCNC(=O)c1cc(-c2ccc(OC)cc2)on1 | inconclusive: 0.501 µM [activator, full curve, poor fit] | 
3 | O=c1c2cc(-c3ccccc3)sc2ncn1/N=C/c1ccco1 | active: 11.2 µM | 
4 | O=C(COc1cccnc1[N+](=O)[O-])Nc1cccc(Br)c1 | active: 11.2 µM | 
5 | CCC(C)(C)NC(=O)C(c1ccc(C)cc1)N(Cc1ccco1)C(=O)Cn1nnc2ccccc21 (stereo not drawn) |  | inactive: -11.2%
6 | O=C(Nc1cccc2c1CCCC2)c1ccc(Cl)c([N+](=O)[O-])c1 |  | inactive: -53.9%
7 | Cc1cc(NC(=O)c2cccc(Oc3ccccc3)c2)n[nH]1 | active: 11.2 µM | 
8 | c1ccc(OCCSc2nnnn2C2CCCCC2)cc1 | inconclusive: 1.26 µM [activator, full curve, poor fit] | 
9 | CCOc1ccc(NC(=O)COc2ccc3c(c2)OCO3)cc1 |  | inactive: 3.01%
10 | Cc1ccc(N(C(=O)CNC(=O)c2ccco2)C(C(=O)NC2CCCC2)c2ccncc2)cc1C (stereo not drawn) |  | inactive: 9.37%
11 | O=C(Nc1cccc(C(F)(F)F)c1)c1ccc(Cn2cc(Br)cn2)o1 |  | inactive: -41.8%
12 | COc1ccc(NC(=O)CSC2=C(C#N)C(c3ccco3)C3=C(CCCC3=O)N2)c(OC)c1 (stereo not drawn) | inconclusive: 35.5 µM [activator, single point] | 
13 | CSCCCNC(=O)c1ccc(OC2CCN(CCc3ccccc3)CC2)cc1 | inconclusive: 17.8 µM [activator, single point] | 
14 | CC(C)c1ccc(NC(=S)NN2CCOCC2)cc1 | inconclusive: 15.8 µM [activator, single point] | 
15 | Cc1ccc(CONC(=O)c2ccc(Cl)cc2)cc1 | active: 8.91 µM | 
16 | CNc1ccc(/C=C2\C=Cc3ccccc32)cc1OC | inconclusive: 12.6 µM [activator, single point] | 
17 | c1ccc(-n2ncc3c(NC4CCCCCC4)ncnc32)cc1 | inconclusive: 1.41 µM [activator, full curve, poor fit] | 
18 | O=C(NCC(c1ccco1)N1CCc2ccccc21)C(=O)Nc1ccccc1F (stereo not drawn) |  | inactive: -72.2%
19 | O=C(NNC(=O)c1cccc2ccccc12)c1ccc2c(c1)OCO2 | inconclusive: 10 µM [activator, partial curve, poor fit] | 
20 | CC1CCN(C(=O)COC(=O)c2ccc3c(c2)OCCO3)CC1 | inconclusive: 22.4 µM [activator, single point] | 
21 | O=C(Nc1ccc(Br)cc1F)c1ccc2nsnc2c1 | inconclusive: 1.41 µM [activator, full curve, poor fit] | 
22 | O=C(CCSc1ccc(Cl)cc1)N1CCN(c2ccc(O)cc2)CC1 |  | inactive: 19%
23 | O=C(CNC(=O)c1ccco1)Nc1ccc(Br)cc1 | inconclusive: 11.2 µM [activator, partial curve, poor fit] | 
24 | CC(C)c1ccc(C(=O)CSc2ncn[nH]2)cc1 | active: 14.1 µM | 

Row | Structure (SMILES) | Potency | activation
25 | CC(C)(C)C1CCC(OC(=O)CN2CCOCC2)CC1 (stereo not drawn) | inconclusive: 35.5 µM [activator, single point] | 
26 | CCOc1ccc(C=Nc2ccc(/C=C/c3ccnc4ccccc34)cc2)cc1OCC |  | inactive: 7.73%
27 | CC(=O)c1ccc(NC(=O)Nc2cccc3ccccc23)cc1 | active: 3.98 µM | 
28 | O=C(Nc1ccc(CN2CCCCC2)cc1)c1sc2ccccc2c1Cl | inconclusive: 25.1 µM [activator, single point] | 
29 | COc1ccc(C(=O)Nc2nncs2)c(OC)c1 | inconclusive: 15.8 µM [activator, partial curve, poor fit] | 
30 | CCSc1nnc(NC(=O)c2ccccc2C)s1 | active: 10 µM | 
31 | Nc1ccc2nn(-c3ccc(Cl)cc3)nc2c1 | inconclusive: 2.51 µM [activator, partial curve, poor fit] | 
32 | O=C(Nc1ccc(F)cc1F)c1ccc2c(=O)n3c(nc2c1)CCCCC3 |  | inactive: 4.14%
33 | COc1cccc(NC(=O)C(c2ccccc2)N2CCCCC2)c1 (stereo not drawn) |  | inactive: -27.1%
34 | CC(C)NC(=O)c1cc(-c2ccc3c(c2)OCO3)on1 | inconclusive: 0.501 µM [activator, full curve, poor fit] | 
35 | Clc1ccccc1OCc1nc(-c2ccncc2)no1 | active: 5.01 µM | 
36 | CCOCC(=O)Nc1nc2ccc(OCC)cc2s1 | inconclusive: 2.82 µM [activator, full curve, poor fit] | 
37 | O=C(NC1CCCCC1)c1cc2nc3c(c(C(F)(F)F)n2n1)CCCC3 | inconclusive: 11.2 µM [activator, partial curve, poor fit] | 
38 | O=c1/c(=C/c2ccc([N+](=O)[O-])cc2)sc2n1CCCN=2 | active: 3.55 µM | 
39 | CC(=O)Nc1ccc(-c2csc(NC=C3C(=O)OC(C)(C)OC3=O)n2)cc1 | inconclusive: 20 µM [activator, single point] | 
40 | O/N=C(/CCc1ccccc1)c1ccc2c(c1)OCCO2 | active: 2.82 µM | 
41 | Cc1c(C(=O)N2CCCCC2)oc2ccc(Br)cc12 | inconclusive: 12.6 µM [activator, partial curve, poor fit] | 
42 | COc1ccc(C(=O)CC(=O)c2ccccc2O)cc1 | inconclusive: 3.16 µM [activator, full curve, poor fit] | 
43 | CCOC(=O)c1ccc(NC(=O)c2ccnn2C)cc1 | inconclusive: 15.8 µM [activator, partial curve, poor fit] | 
44 | Cc1[nH]c2ccc(C(=O)N3CCN(C)CC3)cc2c1C | inconclusive: 15.8 µM [activator, partial curve, poor fit] | 
45 | Cc1cc2nc3c(nc2cc1C)CCCC3 | inconclusive: 14.1 µM [activator, partial curve, poor fit] | 
46 | O=C(Nc1ccc(Br)cn1)c1ccc(Br)s1 | inconclusive: 0.562 µM [activator, full curve, poor fit] | 
47 | COc1ccc(C(=O)OCc2csc(C)n2)c(O)c1 | inconclusive: 11.2 µM [activator, partial curve, poor fit] | 
48 | CC(SC1=NCCS1)C(=O)Nc1nnc(-c2ccc(F)cc2)s1 (stereo not drawn) | inconclusive: 11.2 µM [activator, partial curve, poor fit] | 
